Experimental data as given in the supplement of paper PMC8728848.
Some of the results follow.

Assays:
Assay in all cases: glycan array binding signal (z-score within array); higher = stronger binding
Settings in all cases: glycan notation: IUPAC condensed, linker removed
Gal3S6S(b1-4)GlcNAc = target: Gal3S6S(b1-4)GlcNAc
Outline: (§1)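 Columns mapping to the same glycan were averaged after glycan names were converted to IUPAC-condensed notation. The data come from 3228 arrays in the Consortium for Functional Glycomics database, limited to those with an available protein sequence. Binding is reported as a within-array Z-score averaged across arrays of one protein sequence and across linkers.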

Gal3S6S(b1-4)GlcNAc6S = target: Gal3S6S(b1-4)GlcNAc6S
Outline: as §1

Gal4S(b1-4)GlcNAc = target: Gal4S(b1-4)GlcNAc
Outline: as §1

Gal4S6S(b1-4)GlcNAc = target: Gal4S6S(b1-4)GlcNAc
Outline: as §1

Gal6P(b1-4)GlcNAc = target: Gal6P(b1-4)GlcNAc
Outline: as §1

Gal6S(b1-3)GlcNAc = target: Gal6S(b1-3)GlcNAc
Outline: as §1

Gal6S(b1-3)GlcNAc6S = target: Gal6S(b1-3)GlcNAc6S
Outline: as §1

Gal6S(b1-4)Glc = target: Gal6S(b1-4)Glc
Outline: as §1

Gal6S(b1-4)Glc6S = target: Gal6S(b1-4)Glc6S
Outline: as §1

Gal6S(b1-4)GlcNAc = target: Gal6S(b1-4)GlcNAc
Outline: as §1

Gal6S(b1-4)GlcNAc6S = target: Gal6S(b1-4)GlcNAc6S
Outline: as §1

GalNAc(a1-3)Gal = target: GalNAc(a1-3)Gal
Outline: as §1

GalNAc(a1-3)GalNAc = target: GalNAc(a1-3)GalNAc
Outline: as §1

[1] = target: GalNAc(a1-3)GalNAc(b1-3)Gal(a1-4)Gal(b1-4)Glc
Outline: as §1

[2] = target: GalNAc(a1-3)GalNAc(b1-3)Gal(a1-4)Gal(b1-4)GlcNAc
Outline: as §1

GalNAc(b1-3)Gal = target: GalNAc(b1-3)Gal
Outline: as §1

[3] = target: GalNAc(b1-3)Gal(a1-4)Gal(b1-4)GlcNAc
Outline: as §1

[4] = target: GalNAc(b1-3)Gal(a1-4)Gal(b1-4)GlcNAc(b1-3)Gal(b1-4)Glc
Outline: as §1

[5] = target: GalNAc(b1-3)Gal(a1-6)Gal(b1-4)Glc
Outline: as §1

GalNAc(b1-3)GalNAc = target: GalNAc(b1-3)GalNAc
Outline: as §1

GalNAc(b1-3)GlcNAc = target: GalNAc(b1-3)GlcNAc
Outline: as §1

GalNAc(b1-4)Gal(b1-4)Glc = target: GalNAc(b1-4)Gal(b1-4)Glc
Outline: as §1

GalNAc(b1-4)GlcNAc = target: GalNAc(b1-4)GlcNAc
Outline: as §1

[6] = target: GalNAc(b1-4)GlcNAc(b1-2)Man
Outline: as §1

[7] = target: GalNAc(b1-4)GlcNAc(b1-2)Man(a1-3)[GalNAc(b1-4)GlcNAc(b1-2)Man(a1-6)]Man(b1-4)GlcNAc(b1-4)GlcNAc
Outline: as §1

[8] = target: GalNAc(b1-4)GlcNAc(b1-3)GalNAc(b1-4)GlcNAc
Outline: as §1

GalNAc(b1-4)GlcNAc6S = target: GalNAc(b1-4)GlcNAc6S
Outline: as §1

GalNAc(b1-6)GalNAc = target: GalNAc(b1-6)GalNAc
Outline: as §1

GalNAc3S(b1-4)GlcNAc = target: GalNAc3S(b1-4)GlcNAc
Outline: as §1

GalNAc3S(b1-4)GlcNAc3S = target: GalNAc3S(b1-4)GlcNAc3S
Outline: as §1

[9] = target: GalNAc3S(b1-4)[Fuc(a1-3)]GlcNAc
Outline: as §1

GalNAc4S6S(b1-4)GlcNAc = target: GalNAc4S6S(b1-4)GlcNAc
Outline: as §1

GalNAc6S(b1-4)GlcNAc = target: GalNAc6S(b1-4)GlcNAc
Outline: as §1

Glc(a1-4)Glc = target: Glc(a1-4)Glc
Outline: as §1

[10] = target: Glc(a1-4)Glc(a1-4)Glc(a1-4)Glc
Outline: as §1

Glc(a1-6)Glc(a1-6)Glc = target: Glc(a1-6)Glc(a1-6)Glc
Outline: as §1

[11] = target: Glc(a1-6)Glc(a1-6)Glc(a1-6)Glc
Outline: as §1

Glc(b1-4)Glc = target: Glc(b1-4)Glc
Outline: as §1

B1: Cohesin-hLangerin (Homo sapiens) (protein)
chain: LDDLDAVRIKVDTVNAKPGDTVRIPVRFSGIPSKGIANCDFVYSYDPNVLEIIEIEPGDIIVDPNPDKSFDTAVYPDRKIIVFLFAEDSGTGAYAITKDGVFATIVAKVKEGAPNGLSVIKFVEVGGFANNDLVEQKTQFFDGGANVGDTTEPATPTTPVTTPTTTDDLDAASYPRFMGTISDVKTNVQLLKGRVDNISTLDSEIKKNSDGMEAAGVQIQMVNESLGYVRSQFLKLKTSVEKANAQIQILTRSWEEVSTLNAQIPELKSDLEKASALNTKIRALQGSLENMSKLLKRQNDILQVVSQGWKYFKGNFYYFSLIPKTWYSAEQFCVSRNSHLTSVTSESEQEFLYKTAGGLIYWIGLTKAGMEGDWSWVDDTPFNKVQSARFWIPGEPNNAGNNEHCGNIKAPSLQAWNDAPCDKTFLFICKRPYVPSEPHHHHHH
B1 was tested, and the “glycan array binding signal (z-score)” value (Gal3S6S(b1-4)GlcNAc) was -0.287, the “glycan array binding signal (z-score)” value (Gal3S6S(b1-4)GlcNAc6S) was -0.352 and the “glycan array binding signal (z-score)” value (Gal4S(b1-4)GlcNAc) was -0.43. For the same binder, the “glycan array binding signal (z-score)” value (Gal4S6S(b1-4)GlcNAc) was -0.385, the “glycan array binding signal (z-score)” value (Gal6P(b1-4)GlcNAc) was -0.264 and the “glycan array binding signal (z-score)” value (Gal6S(b1-3)GlcNAc) was 3.37. The “glycan array binding signal (z-score)” value (Gal6S(b1-3)GlcNAc6S) was 5.12, the “glycan array binding signal (z-score)” value (Gal6S(b1-4)Glc) was 1.29 and the “glycan array binding signal (z-score)” value (Gal6S(b1-4)Glc6S) was 4. For the same binder, the “glycan array binding signal (z-score)” value (Gal6S(b1-4)GlcNAc) was 3.76, the “glycan array binding signal (z-score)” value (Gal6S(b1-4)GlcNAc6S) was 4.85 and the “glycan array binding signal (z-score)” value (GalNAc(a1-3)Gal) was -0.36. For the same binder, the “glycan array binding signal (z-score)” value (GalNAc(a1-3)GalNAc) was -0.361, the “glycan array binding signal (z-score)” value [1] was -0.438 and the “glycan array binding signal (z-score)” value [2] was -0.244. For the same binder, the “glycan array binding signal (z-score)” value (GalNAc(b1-3)Gal) was -0.151, the “glycan array binding signal (z-score)” value [3] was -0.058 and the “glycan array binding signal (z-score)” value [4] was -0.036. The “glycan array binding signal (z-score)” value [5] was -0.252, the “glycan array binding signal (z-score)” value (GalNAc(b1-3)GalNAc) was -0.366 and the “glycan array binding signal (z-score)” value (GalNAc(b1-3)GlcNAc) was -0.31. For the same binder, the “glycan array binding signal (z-score)” value (GalNAc(b1-4)Gal(b1-4)Glc) was -0.296, the “glycan array binding signal (z-score)” value (GalNAc(b1-4)GlcNAc) was -0.176 and the “glycan array binding signal (z-score)” value [6] was -0.36. The “glycan array binding signal (z-score)” value [7] was -0.354, the “glycan array binding signal (z-score)” value [8] was -0.088 and the “glycan array binding signal (z-score)” value (GalNAc(b1-4)GlcNAc6S) was -0.167. The “glycan array binding signal (z-score)” value (GalNAc(b1-6)GalNAc) was -0.351, the “glycan array binding signal (z-score)” value (GalNAc3S(b1-4)GlcNAc) was -0.444 and the “glycan array binding signal (z-score)” value (GalNAc3S(b1-4)GlcNAc3S) was -0.439. For the same binder, the “glycan array binding signal (z-score)” value [9] was -0.407, the “glycan array binding signal (z-score)” value (GalNAc4S6S(b1-4)GlcNAc) was -0.446 and the “glycan array binding signal (z-score)” value (GalNAc6S(b1-4)GlcNAc) was -0.348. For the same binder, the “glycan array binding signal (z-score)” value (Glc(a1-4)Glc) was -0.208, the “glycan array binding signal (z-score)” value [10] was -0.205 and the “glycan array binding signal (z-score)” value (Glc(a1-6)Glc(a1-6)Glc) was -0.345. For the same binder, the “glycan array binding signal (z-score)” value [11] was -0.266 and the “glycan array binding signal (z-score)” value (Glc(b1-4)Glc) was -0.092.
